These results are taken from ChEMBL document CHEMBL4888484, “Replenishing the malaria drug discovery pipeline: Screening and hit evaluation of the MMV Hit Generation Library 1 (HGL1) against asexual blood stage Plasmodium falciparum ,using a nano luciferase reporter read-out” (2022).

Among all 150,000 compounds or so, about 540 (0.36%) showed an effect of 50% or more. Some of the results follow.

This assay relates to Plasmodium falciparum. The assay is described as follows: Primary screen in NF54 nanoGlo assay, in single point, at 2uM, 72h; a lower Z score goes with more inhibition. In kind it is functional, Erythrocyte. The conditions noted are these: timepoint 72 hour.
Turning to `CN1CCN(C2(CNC(=O)Nc3ccccc3C(F)(F)F)CCCC2)CC1`, the “% Inhibition” value is listed as -2% and the Z score is given as 0.33.

For `O=C1CCN(S(=O)(=O)c2ccccc2)CCCN(S(=O)(=O)c2ccc3c(c2)OCCO3)CCN1`, the “% Inhibition” value is -21% and the Z score is 2.41.

Take `COc1cccc(OC)c1C(=O)Nc1cc2ccccc2cc1NC(=O)c1c(OC)cccc1OC`: the “% Inhibition” value was 5% and the Z score is -0.9.

Regarding `Cc1cc(COCC(=O)N2CCOCC23CCCCC3)no1`, the “% Inhibition” value is 3% and the Z score was -0.67.

Regarding `O=C(C[C@H]1CCS(=O)(=O)C1)NC1(c2noc(C3CCCC3)n2)CCCCCC1`, the “% Inhibition” value is -4% and the Z score was 0.54.

`Fc1ccc(-c2nn(-c3ccccc3)cc2C2Nc3cccc4cccc(c34)N2)cc1`: the “% Inhibition” value came to 1% and the Z score is listed as -0.13.

As to `Fc1ccc(NCC[C@H]2CCCO2)c(OC(F)F)c1`, the “% Inhibition” value is given as -13% and the Z score was found to be 2.26.

Consider `CC(=O)NC[C@@H]1CN(C(=O)Cc2cc(C)ccc2C)C[C@H]1c1cncn1C`, for which the “% Inhibition” value was -8% and the Z score came out at 1.27.

Consider `Cc1nsc(C(=O)N2CCN(Cc3ccc4c(c3)OCO4)CC2)n1`, for which the “% Inhibition” value is listed as -16% and the Z score is recorded as 2.41.

On to `CC(C)[C@H](Cn1cncn1)NC(=O)c1ccc(Cl)s1`, for which the “% Inhibition” value is 10% and the Z score was -1.26.

With `Cc1ccc(C)n1-c1c(C(=O)NCCc2cccs2)sc2ncccc12`, the “% Inhibition” value is given as -14% and the Z score worked out at 1.31.

As for `Cc1nn(C)c(C)c1[C@H]1OCC[C@@H]1CNC(=O)c1cccn1C(C)C`, the “% Inhibition” value was 0% and the Z score is reported as -0.01.

For the compound `CC(C)c1nccn1CC(=O)Nc1ccccc1C(=O)NC1CC1`, the “% Inhibition” value is given as -13% and the Z score is 2.14.

Take `COc1ccc(-c2nc(C)c(C(=O)NCCOc3ccccc3)s2)cc1OC`: the “% Inhibition” value is listed as -3% and the Z score was found to be 0.56.

Turning to `CCOc1cccc(-c2ccc3nc(-c4ccc(C)cc4)c(CN4CCN(S(=O)(=O)c5ccc(OC)cc5)CC4)n3c2)c1`, the “% Inhibition” value turned out to be 15% and the Z score is recorded as -1.62.

Regarding `CCOc1cccc(CNC(=NC)c2cccs2)c1`, the “% Inhibition” value came to 0% and the Z score was 0.03.

In the case of `COc1cccc(C(=O)Nc2ccc(N3CCN(C(=O)c4cccc(F)c4)CC3)c(C(=O)N3CCCCC3)c2)c1`, the “% Inhibition” value was -1% and the Z score amounted to 0.13.

In the case of `O=C(NC[C@H]1O[C@@H](CO)[C@@H](O)[C@H]1N1CCc2ccccc2C1)N1CCOCC1`, the “% Inhibition” value was found to be 15% and the Z score is -1.76.

Regarding `CCc1cccc(NC(=O)Cn2c(=O)c(N3CCCCC3)nc3ccccc32)c1`, the “% Inhibition” value is reported as -7% and the Z score amounted to 1.19.

As for `CCc1noc(CNC(=O)NCCNc2nc(C)cc(=O)[nH]2)n1`, the “% Inhibition” value is -20% and the Z score amounted to 1.82.

Turning to `COc1ccc(Nc2nc(-c3ccco3)nc3ccc(C)cc23)cc1`, the “% Inhibition” value is reported as 13% and the Z score is reported as -1.61.

For the compound `COCCNC(=O)[C@H]1CCCN(c2nnc3ccc(C(F)(F)F)cn23)C1`, the “% Inhibition” value is on record as -25% and the Z score worked out at 4.25.

With `Cc1cn2c(n1)CC[C@H](Nc1ncccc1F)C2`, the “% Inhibition” value is listed as 0% and the Z score was determined as 0.

With `O=C(CC[C@H]1CCCOC1)Nc1cc(O)cc(F)c1`, the “% Inhibition” value is listed as -6% and the Z score was 0.51.

For `O=C(NC1CCCC1)[C@H]1CCN(c2cnn(CC3CC3)c(=O)c2)C1`, the “% Inhibition” value is reported as -5% and the Z score came to 0.77.

Turning to `Cc1cccc(CCNC2CCN(c3ccc(-n4nc(C)cc4C)cc3)CC2)n1`, the “% Inhibition” value is -12% and the Z score is reported as 1.06.

As for `COc1cc(NC(=O)N2CCC[C@H]2CO)cc(-n2cnnn2)c1`, the “% Inhibition” value was -16% and the Z score turned out to be 2.47.

Consider `Fc1ccccc1CN(Cc1cccnc1)C[C@H]1CCCN(C2CCCCC2)C1`, for which the “% Inhibition” value is reported as -9% and the Z score came out at 1.32.

With `NC(=NCC1(c2ccccc2Cl)CC1)N1CCOCC1`, the “% Inhibition” value is reported as -3% and the Z score turned out to be 0.44.

For `CCC1(O)CCN(C(=O)c2ccc3cc[nH]c3c2)CC1`, the “% Inhibition” value is reported as -10% and the Z score is reported as 1.89.

On to `CC(C)C[C@H](C)n1nccc1NC(=O)c1ncoc1-c1ccco1`, for which the “% Inhibition” value was -10% and the Z score is reported as 1.63.

As for `CC(c1ccccc1)C1CC(=O)N(c2ccc(Cl)cn2)C1=O` (centres undefined), the “% Inhibition” value is -4% and the Z score is recorded as 0.62.

Consider `CC(C)(C)c1nnnn1C[C@H](O)C(F)(F)F`, for which the “% Inhibition” value is listed as -2% and the Z score is reported as 0.2.

As for `Nc1nc2c(c(C(=O)N(Cc3ccccn3)C[C@@H]3CCC(=O)N3)n1)CCCC2`, the “% Inhibition” value was 13% and the Z score is listed as -1.67.

Take `C[C@@H](c1nc(C(=O)NCc2ccc(F)cc2)no1)n1ccnc1`: the “% Inhibition” value turned out to be 0% and the Z score is 0.06.

`CC(C)[C@H](NC(=O)c1cnn[nH]1)c1ccccn1`: the “% Inhibition” value was -3% and the Z score worked out at 0.42.

`COCC(=O)N1CCC2(CC1)CN(C(=O)OC(C)(C)C)C2`: the “% Inhibition” value is -1% and the Z score is 0.21.

For `CN(C)c1ncccc1C(=O)OC1CCCC1`, the “% Inhibition” value is -15% and the Z score worked out at 1.38.

In the case of `CCCn1c(=O)sc2cc(NS(=O)(=O)c3ccc(CC)cc3)ccc21`, the “% Inhibition” value was -3% and the Z score amounted to 0.43.

With `COc1cc(Br)cc(C)c1NC(=O)NCCO`, the “% Inhibition” value was 6% and the Z score is listed as -0.88.

On to `COc1cncc(C(=O)N(c2cccc(C(F)(F)F)c2)C(C)C)n1`, for which the “% Inhibition” value is 11% and the Z score is -1.67.

Take `CCC[C@]1(COC)CCCN1C(=O)c1cnc(Cc2ccccc2)s1`: the “% Inhibition” value is given as 1% and the Z score is on record as -0.13.
